Test results: the supplement of paper PMC4967469
IC50 is the fitted dose that halves viability relative to control wells, and lower means more sensitive; a fit beyond the top or the lowest dose is shown as a bound at that dose. AUC sums up the same curve from the lowest dose to the 256-fold higher top dose; the more sensitive the line, the further below 1. For some of these results: Any top dose called inferred comes from the curve model; the source does not state it. For some of these results: Where an entry number is given, a second screen of the drug exists; the two often differ.

Experiments:
Assay in all cases: Viability of human cancer cell lines after 72 h of drug (GDSC screen)
SNX-2112 = compound: CC1(C)CC(=O)c2c(C(F)(F)F)nn(-c3ccc(C(N)=O)c(N[C@H]4CC[C@H](O)CC4)c3)c2C1 [SNX-2112]; details: top dose 2.56 µM
Description: (§1)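 Human cancer cell lines in 384-well plates, medium with 10% serum, drug for 72 h over a 256-fold dose range (nine 2-fold or five 4-fold steps up to the top dose). Adherent lines were fixed and stained with the nucleic acid dye Syto60, suspension lines read with resazurin; signal relative to control wells, capped at 0 and 100%. One two-parameter sigmoid per drug and line, fitted in a mixed model over all curves with the slope shared within a line.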

PF-562271 = compound: CN(c1ncccc1CNc1nc(Nc2ccc3c(c2)CC(=O)N3)ncc1C(F)(F)F)S(C)(=O)=O [PF-562271]; details: top dose 2.56 µM; top dose inferred
Description: as §1

Afatinib = compound: CN(C)C/C=C/C(=O)Nc1cc2c(Nc3ccc(F)c(Cl)c3)ncnc2cc1O[C@H]1CCOC1 [Afatinib]
Description: as §1

XMD13-2 = compound: O=C(NC1CC1)c1cccc(-c2ccc3c(NC(=O)C4CC4)n[nH]c3c2)c1 [XMD13-2]; details: top dose 10.24 µM; top dose inferred
Description: as §1

[1] = top dose 0.5 µM, screen: GDSC drug entry 1032
[2] = top dose 10 µM, screen: GDSC drug entry 1377, top dose inferred

## DMS-114 (small cell lung carcinoma, adherent)
SNX-2112
  AUC: 0.528
  IC50: 0.193 µM
PF-562271
  AUC: 0.983
  IC50: > 2.56 µM
Afatinib; [1]
  AUC: 0.985
  IC50: > 0.5 µM
Afatinib; [2]
  AUC: 0.916
  IC50: > 10 µM
XMD13-2
  AUC: 0.89
  IC50: > 10.2 µM

## ES3 (Ewing sarcoma, adherent)
SNX-2112
  AUC: 0.459
  IC50: 0.123 µM
PF-562271
  AUC: 0.974
  IC50: > 2.56 µM
Afatinib; [2]
  AUC: 0.87
  IC50: > 10 µM
XMD13-2
  AUC: 0.867
  IC50: 10.1 µM

## Farage (B-cell lymphoma, suspension)
SNX-2112
  AUC: 0.224
  IC50: 0.0306 µM
PF-562271
  AUC: 0.956
  IC50: > 2.56 µM
Afatinib; [1]
  AUC: 0.965
  IC50: > 0.5 µM
Afatinib; [2]
  AUC: 0.992
  IC50: > 10 µM
XMD13-2
  AUC: 0.8
  IC50: 3.95 µM

## GAMG (glioma, adherent)
SNX-2112
  AUC: 0.297
  IC50: 0.0415 µM
PF-562271
  AUC: 0.931
  IC50: > 2.56 µM
Afatinib; [2]
  AUC: 0.948
  IC50: > 10 µM
XMD13-2
  AUC: 0.801
  IC50: 5.27 µM

## GCT (soft tissue, adherent)
SNX-2112
  AUC: 0.972
  IC50: > 2.56 µM
PF-562271
  AUC: 0.919
  IC50: > 2.56 µM
Afatinib; [2]
  AUC: 0.988
  IC50: > 10 µM
XMD13-2
  AUC: 0.989
  IC50: > 10.2 µM

## GP5d (large intestine, adherent)
SNX-2112
  AUC: 0.471
  IC50: 0.134 µM
PF-562271
  AUC: 0.844
  IC50: 1.55 µM
Afatinib; [2]
  AUC: 0.976
  IC50: > 10 µM
XMD13-2
  AUC: 0.919
  IC50: > 10.2 µM

## H2591 (mesothelioma, adherent)
SNX-2112
  AUC: 0.786
  IC50: 1.48 µM
PF-562271
  AUC: 0.972
  IC50: > 2.56 µM
Afatinib; [2]
  AUC: 0.886
  IC50: > 10 µM
XMD13-2
  AUC: 0.939
  IC50: > 10.2 µM

## H2803 (mesothelioma, adherent)
SNX-2112
  AUC: 0.945
  IC50: > 2.56 µM
PF-562271
  AUC: 0.944
  IC50: > 2.56 µM
Afatinib; [2]
  AUC: 0.971
  IC50: > 10 µM
XMD13-2
  AUC: 0.981
  IC50: > 10.2 µM

## H2804 (mesothelioma, adherent)
SNX-2112
  AUC: 0.962
  IC50: > 2.56 µM
PF-562271
  AUC: 0.922
  IC50: > 2.56 µM
Afatinib; [2]
  AUC: 0.984
  IC50: > 10 µM
XMD13-2
  AUC: 0.976
  IC50: > 10.2 µM

## H2818 (mesothelioma, adherent)
SNX-2112
  AUC: 0.953
  IC50: > 2.56 µM
PF-562271
  AUC: 0.986
  IC50: > 2.56 µM
Afatinib; [2]
  AUC: 0.976
  IC50: > 10 µM
XMD13-2
  AUC: 0.988
  IC50: > 10.2 µM

## H-EMC-SS (chondrosarcoma, adherent)
SNX-2112
  AUC: 0.401
  IC50: 0.0789 µM
PF-562271
  AUC: 0.908
  IC50: > 2.56 µM
Afatinib; [2]
  AUC: 0.979
  IC50: > 10 µM
XMD13-2
  AUC: 0.959
  IC50: > 10.2 µM

## HCC38 (breast, adherent)
SNX-2112
  AUC: 0.48
  IC50: 0.14 µM
PF-562271
  AUC: 0.977
  IC50: > 2.56 µM
Afatinib; [1]
  AUC: 0.983
  IC50: > 0.5 µM
Afatinib; [2]
  AUC: 0.978
  IC50: > 10 µM
XMD13-2
  AUC: 0.889
  IC50: > 10.2 µM

## HCC70 (breast, adherent)
SNX-2112
  AUC: 0.762
  IC50: 0.897 µM
PF-562271
  AUC: 0.836
  IC50: 1.66 µM
Afatinib; [1]
  AUC: 0.965
  IC50: > 0.5 µM
Afatinib; [2]
  AUC: 0.962
  IC50: > 10 µM
XMD13-2
  AUC: 0.918
  IC50: > 10.2 µM

## HCC1500 (breast, adherent)
SNX-2112
  AUC: 0.91
  IC50: > 2.56 µM
PF-562271
  AUC: 0.976
  IC50: > 2.56 µM
Afatinib; [1]
  AUC: 0.972
  IC50: > 0.5 µM
Afatinib; [2]
  AUC: 0.979
  IC50: > 10 µM
XMD13-2
  AUC: 0.927
  IC50: > 10.2 µM

## HCC1806 (breast, adherent)
SNX-2112
  AUC: 0.499
  IC50: 0.159 µM
PF-562271
  AUC: 0.946
  IC50: > 2.56 µM
Afatinib; [2]
  AUC: 0.934
  IC50: > 10 µM
XMD13-2
  AUC: 0.856
  IC50: 7.19 µM

## HCC1937 (breast, adherent)
SNX-2112
  AUC: 0.815
  IC50: 1.69 µM
PF-562271
  AUC: 0.943
  IC50: > 2.56 µM
Afatinib; [1]
  AUC: 0.946
  IC50: > 0.5 µM
Afatinib; [2]
  AUC: 0.96
  IC50: > 10 µM
XMD13-2
  AUC: 0.908
  IC50: > 10.2 µM

## HEL (acute myeloid leukaemia, semi-adherent)
SNX-2112
  AUC: 0.36
  IC50: 0.0706 µM
PF-562271
  AUC: 0.964
  IC50: > 2.56 µM
Afatinib; [2]
  AUC: 0.984
  IC50: > 10 µM
XMD13-2
  AUC: 0.875
  IC50: 7.23 µM

## HLE (liver, adherent)
SNX-2112
  AUC: 0.376
  IC50: 0.0744 µM
PF-562271
  AUC: 0.943
  IC50: > 2.56 µM
Afatinib; [2]
  AUC: 0.987
  IC50: > 10 µM
XMD13-2
  AUC: 0.989
  IC50: > 10.2 µM

## HO-1-N-1 (head and neck, adherent)
SNX-2112
  AUC: 0.744
  IC50: 0.746 µM
PF-562271
  AUC: 0.897
  IC50: > 2.56 µM
Afatinib; [2]
  AUC: 0.617
  IC50: 1.27 µM
XMD13-2
  AUC: 0.911
  IC50: > 10.2 µM

## HPAF-II (pancreas, adherent)
SNX-2112
  AUC: 0.622
  IC50: 0.384 µM
PF-562271
  AUC: 0.979
  IC50: > 2.56 µM
Afatinib; [2]
  AUC: 0.901
  IC50: > 10 µM
XMD13-2
  AUC: 0.901
  IC50: > 10.2 µM

## TE-441-T (rhabdomyosarcoma, adherent)
SNX-2112
  AUC: 0.366
  IC50: 0.0695 µM
PF-562271
  AUC: 0.936
  IC50: > 2.56 µM
XMD13-2
  AUC: 0.949
  IC50: > 10.2 µM

## THP-1 (acute myeloid leukaemia, suspension)
SNX-2112
  AUC: 0.287
  IC50: 0.043 µM
PF-562271
  AUC: 0.971
  IC50: > 2.56 µM
XMD13-2
  AUC: 0.925
  IC50: > 10.2 µM

## UACC-812 (breast, adherent)
SNX-2112
  AUC: 0.991
  IC50: > 2.56 µM
PF-562271
  AUC: 0.989
  IC50: > 2.56 µM
XMD13-2
  AUC: 0.989
  IC50: > 10.2 µM

## VM-CUB-1 (bladder, adherent)
SNX-2112
  AUC: 0.76
  IC50: 0.875 µM
PF-562271
  AUC: 0.901
  IC50: > 2.56 µM
XMD13-2
  AUC: 0.967
  IC50: > 10.2 µM
